Some of the results follow. At the low end of the ranking the order means little.
molecular target: T1, GST-Rok-C97-191 (UniProt O34857); assay: protein binding microarray; details: Rok is a gene silencer of Bacillus subtilis; high values mean tight binding; most listed sequences are background and not binding sites; double strand, one strand shown;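 further: rank score from −0.5 (least bound) to 0.5 (best bound)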
T1 sequence: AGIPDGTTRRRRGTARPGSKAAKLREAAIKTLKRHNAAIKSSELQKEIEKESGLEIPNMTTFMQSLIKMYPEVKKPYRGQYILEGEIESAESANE

| Sequence | binding signal |
| --- | --- |
| GGTGGAAA | 0.027 E-score |
| AAGAAGAT | 0.0078 E-score |
| AGGGTACG | -0.127 E-score |
| AAAACAGC | 0.0515 E-score |
| GCCGCTCC | -0.293 E-score |
| CGGGTTAC | -0.168 E-score |
| TAGGATAA | 0.0184 E-score |
| GTTGGAGA | -0.0321 E-score |
| GAAGTGCA | -0.0346 E-score |
| GAACCGCC | -0.164 E-score |
| CGGCACTC | -0.0669 E-score |
| AGACCAAG | -0.213 E-score |
| CCTCCCTA | -0.171 E-score |
| CTCTGGTA | 0.0733 E-score |
| GTCACAAC | -0.203 E-score |
| CACGGAAA | -0.0278 E-score |
| CATTCGTC | -0.124 E-score |
| AATCCATT | 0.0476 E-score |
| AGATTACG | 0.114 E-score |
| CTTACACC | 0.111 E-score |
| ATTACCCA | 0.223 E-score |
| CGTCACAG | -0.0393 E-score |
| AGCCGTGG | -0.135 E-score |
| CCAAGTAC | 0.11 E-score |
| AAGAGAGA | -0.188 E-score |

| Sequence | binding signal |
| --- | --- |
| AGTGACCG | -0.155 E-score |
| CGGCCCAC | -0.213 E-score |
| ACCCTTTG | -0.117 E-score |
| ATTACGGG | -0.016 E-score |
| AGCTCGGC | -0.0356 E-score |
| AACATGTA | 0.237 E-score |
| ACTCCCAA | -0.0151 E-score |
| GGGAATGA | -0.284 E-score |
| ACAACGAT | 0.0651 E-score |
| GACTACGA | 0.0584 E-score |
| CCCAAGAC | -0.133 E-score |
| ATTCGGGG | -0.103 E-score |
| CGACCGGC | -0.134 E-score |
| GGTTTCCA | -0.226 E-score |
| AACGCTCG | -0.199 E-score |
| GAATTCAA | -0.016 E-score |
| CCACCACA | 0.0146 E-score |
| AGTTGTAA | 0.27 E-score |
| TAGCTACA | 0.353 E-score |
| AGTATGAA | 0.202 E-score |
| GGGCTCGA | -0.181 E-score |
| CACCCTAG | -0.0149 E-score |
| CAATGGGG | -0.222 E-score |
| CGGCCAGC | -0.16 E-score |
| TACGATGA | 0.0784 E-score |

| Sequence | binding signal |
| --- | --- |
| GTAAGCAA | -0.00275 E-score |
| AAACTCTT | 0.063 E-score |
| AGTGTGCA | -0.123 E-score |
| TCTGACCA | -0.248 E-score |
| GACCCCTC | -0.39 E-score |
| CCCGTCAA | -0.304 E-score |
| CAACTCGC | 0.0199 E-score |
| AATATTAA | 0.285 E-score |
| ATGCTGGA | -0.156 E-score |
| CGCCCATA | -0.193 E-score |
| ATTATCCA | 0.0324 E-score |
| ATGCACGC | -0.173 E-score |
| TAGTGCCA | -0.0248 E-score |
| GCGGCAAC | -0.135 E-score |
| CGTAATGA | 0.0414 E-score |
| AGCTCTCG | 0.0481 E-score |
| GTACCTTA | 0.279 E-score |
| CGCCTGAC | -0.301 E-score |
| AAAAGTAT | 0.239 E-score |
| ATGTACTA | 0.376 E-score |
| GTTCATGA | 0.0865 E-score |
| ACCTCATA | -0.018 E-score |
| GTGCACAA | 0.113 E-score |
| ATCCATGA | 0.148 E-score |
| ACATCAAA | 0.02 E-score |

| Sequence | binding signal |
| --- | --- |
| AAAACTAC | 0.433 E-score |
| AGAGAGCT | -0.122 E-score |
| AAAAGCGC | 0.137 E-score |
| CTGGCACA | -0.256 E-score |
| ACAGAGCG | -0.117 E-score |
| CGAGACTC | -0.147 E-score |
| ACAATCAT | 0.115 E-score |
| AGGAAGTA | 0.141 E-score |
| ATTTGAGG | -0.0528 E-score |
| CTACTGTC | 0.234 E-score |
| GCTGTGAA | 0.000123 E-score |
| AGGCGATC | -0.147 E-score |
| AGGAGGAG | -0.27 E-score |
| ACGAAGGC | -0.285 E-score |
| TAACTTCA | 0.162 E-score |
| ACGATTCT | 0.252 E-score |
| GGCTACAC | -0.226 E-score |
| GTGAACAA | 0.0221 E-score |
| AACTTACA | 0.135 E-score |
| TACGTCAA | 0.0537 E-score |
| GGAAACAC | -0.216 E-score |
| ACTTTCAA | 0.00898 E-score |
| CAGTTGTA | 0.1 E-score |
| ATAACGGG | 0.0899 E-score |
| ATCTCTGC | -0.0825 E-score |

| Sequence | binding signal |
| --- | --- |
| CACACGTG | -0.0488 E-score |
| AGATAGAA | 0.308 E-score |
| TGATTGAA | -0.0411 E-score |
| GATCTTGC | 0.127 E-score |
| TAGTCTGA | 0.176 E-score |
| CACTCGTC | -0.215 E-score |
| ATGCAGCA | -0.212 E-score |
| ACATCTAT | 0.309 E-score |
| CCGTGTAG | -0.173 E-score |
| TCACGACA | -0.095 E-score |
| CTCGTACC | -0.0243 E-score |
| CACTCTAC | -0.0406 E-score |
| ATCTCGTC | 0.0835 E-score |
| CGTACTGC | -0.0786 E-score |
| CGGTTCAC | -0.00825 E-score |
| ACTGAAGT | 0.155 E-score |
| CTGATCGC | -0.235 E-score |
| GGAGACCC | -0.339 E-score |
| ATGACCGG | -0.048 E-score |
| ACCTTGAA | -0.0826 E-score |
| CAGGCGCC | -0.149 E-score |
| CGGTGATA | -0.112 E-score |
| TCGATAGA | 0.231 E-score |
| AACAGCAA | 0.0517 E-score |
| ATCAATAA | 0.124 E-score |

| Sequence | binding signal |
| --- | --- |
| TATCAGAA | 0.0835 E-score |
| GGTACGAC | -0.188 E-score |
| ATGGATAG | 0.0788 E-score |
| ACGGCCCG | -0.272 E-score |
| GCATCTAC | 0.0595 E-score |
| AACACTCG | 0.016 E-score |
| ACGCTGGC | -0.0717 E-score |
| ACGCAATC | 0.0373 E-score |
| AATCTTTA | 0.129 E-score |
| CTCAATAC | 0.105 E-score |
| CACTTGAA | -0.00847 E-score |
| GTGGTAGA | 0.433 E-score |
| CCTCCCAC | -0.142 E-score |
| AATAGTGG | 0.168 E-score |
| CAAAGCAG | -0.152 E-score |
| ACGAATTA | 0.208 E-score |
| AAGTCGAA | -0.0343 E-score |
| AATCATAG | 0.176 E-score |
| AAATCCAG | 0.115 E-score |
| CAAAAGCG | 0.0268 E-score |
| CGACATAA | 0.105 E-score |
| AATTGCAC | 0.0389 E-score |
| CCGGGTGC | -0.27 E-score |
| AATACTGT | 0.083 E-score |
| CTGACCAG | -0.171 E-score |

| Sequence | binding signal |
| --- | --- |
| CTACACAG | 0.147 E-score |
| ATAAACCA | 0.249 E-score |
| AGGTCAAA | 0.0797 E-score |
| AGGGTTCA | -0.199 E-score |
| ACCGGTAA | 0.192 E-score |
| ATAATGCC | 0.0188 E-score |
| CCGGGAAC | -0.263 E-score |
| TATGCAAA | 0.156 E-score |
| GTGCCTGA | -0.0736 E-score |
| ACCAACCG | -0.0348 E-score |
| ATACCAAT | 0.301 E-score |
| GATATTGA | 0.0914 E-score |
| CCTCACAC | 0.00364 E-score |
| AAGCCCTG | -0.245 E-score |
| CATGAGCA | 0.11 E-score |
| ACTTAGAC | -0.189 E-score |
| TCACTACA | -0.0801 E-score |
| AACATAGG | 0.0412 E-score |
| ATTGGTGC | 0.0558 E-score |
| CTTACAAG | 0.00119 E-score |
| ATGGAGTC | 0.133 E-score |
| AAATTGGA | 0.0993 E-score |
| TCATCGCA | -0.062 E-score |
| GCAGGCAC | -0.297 E-score |
| CTGCCTGA | -0.0503 E-score |

| Sequence | binding signal |
| --- | --- |
| TCAGCCGA | -0.0187 E-score |
| CTGAATAA | 0.237 E-score |
| CGAAGCAA | -0.0947 E-score |
| GAAACGGA | -0.0528 E-score |
| CACCGTGA | -0.0456 E-score |
| TAACGGGA | 0.19 E-score |
| TGATGGAA | 0.127 E-score |
| CGGCACGC | -0.195 E-score |
| GGATTGCA | 0.0474 E-score |
| TCACATAA | 0.139 E-score |
| ATGCAGGA | 0.0131 E-score |
| GTATCGCA | 0.0404 E-score |
| ACCTCCCA | -0.101 E-score |
| ACCTCCCT | -0.213 E-score |
| CGACCTCA | -0.205 E-score |
| AGGGGCGC | -0.249 E-score |
| CCAAGATC | -0.0335 E-score |
| CAGAGTTC | -0.1 E-score |
| ATTTGGCC | 0.107 E-score |
| GGGCGTAA | -0.233 E-score |
| GGAACGCC | -0.232 E-score |
| TCCTGGCA | 0.00673 E-score |
| ACCGGGAA | -0.0434 E-score |
| ACCGCCGG | -0.192 E-score |
| CCTTCCCA | -0.317 E-score |

| Sequence | binding signal |
| --- | --- |
| CAATACCA | 0.0679 E-score |
| AGAGATCT | 0.0463 E-score |
| CGACCCGC | -0.259 E-score |
| TAATAAAA | 0.344 E-score |
| ATAGCAGC | -0.0351 E-score |
| CAACGGCA | -0.159 E-score |
| TAATGCCA | -0.0387 E-score |
| CGCCATTC | -0.0839 E-score |
| TCCAGAAA | 0.0914 E-score |
| CCAAACGC | -0.127 E-score |
| AGACGCCG | -0.301 E-score |
| GAAATTCC | 0.141 E-score |
| AGATGAAG | -0.0366 E-score |
| ACGCCAAA | -0.128 E-score |
| AGGGCAAT | -0.0534 E-score |
| ACTAGGAC | -0.0957 E-score |
| AAACTCGA | -0.0345 E-score |
| GCCTGTCC | 0.0602 E-score |
| CCTATGGA | -0.0967 E-score |
